Experiment [1] concerns the target T1, human RON receptor (human, UniProt Q04912 25-1400). In words: flow cytometry on HT29 cells, FITC-coupled anti-human IgG1 secondary. As to the method: Colon cancer HT29 cell line expressing ˜19,000 RON molecules per cell were used as the model. Mouse PCM5B14 was used as the positive control. Individual H5B14 clones at different concentrations were incubated with cells followed by addition of FITC-coupled anti-human IgG1 antibody. Fluorescence intensities from individual samples were analyzed using the BD flow cytometer. Results in FIG. 2 are the dose-dependent specific binding of individual H5B14s. […] Results in Table 1 show the individual values reflecting the binding affinity and sensitivity of individual H5B14 clones to human RON receptor.
T1 sequence (Q04912 25-1400): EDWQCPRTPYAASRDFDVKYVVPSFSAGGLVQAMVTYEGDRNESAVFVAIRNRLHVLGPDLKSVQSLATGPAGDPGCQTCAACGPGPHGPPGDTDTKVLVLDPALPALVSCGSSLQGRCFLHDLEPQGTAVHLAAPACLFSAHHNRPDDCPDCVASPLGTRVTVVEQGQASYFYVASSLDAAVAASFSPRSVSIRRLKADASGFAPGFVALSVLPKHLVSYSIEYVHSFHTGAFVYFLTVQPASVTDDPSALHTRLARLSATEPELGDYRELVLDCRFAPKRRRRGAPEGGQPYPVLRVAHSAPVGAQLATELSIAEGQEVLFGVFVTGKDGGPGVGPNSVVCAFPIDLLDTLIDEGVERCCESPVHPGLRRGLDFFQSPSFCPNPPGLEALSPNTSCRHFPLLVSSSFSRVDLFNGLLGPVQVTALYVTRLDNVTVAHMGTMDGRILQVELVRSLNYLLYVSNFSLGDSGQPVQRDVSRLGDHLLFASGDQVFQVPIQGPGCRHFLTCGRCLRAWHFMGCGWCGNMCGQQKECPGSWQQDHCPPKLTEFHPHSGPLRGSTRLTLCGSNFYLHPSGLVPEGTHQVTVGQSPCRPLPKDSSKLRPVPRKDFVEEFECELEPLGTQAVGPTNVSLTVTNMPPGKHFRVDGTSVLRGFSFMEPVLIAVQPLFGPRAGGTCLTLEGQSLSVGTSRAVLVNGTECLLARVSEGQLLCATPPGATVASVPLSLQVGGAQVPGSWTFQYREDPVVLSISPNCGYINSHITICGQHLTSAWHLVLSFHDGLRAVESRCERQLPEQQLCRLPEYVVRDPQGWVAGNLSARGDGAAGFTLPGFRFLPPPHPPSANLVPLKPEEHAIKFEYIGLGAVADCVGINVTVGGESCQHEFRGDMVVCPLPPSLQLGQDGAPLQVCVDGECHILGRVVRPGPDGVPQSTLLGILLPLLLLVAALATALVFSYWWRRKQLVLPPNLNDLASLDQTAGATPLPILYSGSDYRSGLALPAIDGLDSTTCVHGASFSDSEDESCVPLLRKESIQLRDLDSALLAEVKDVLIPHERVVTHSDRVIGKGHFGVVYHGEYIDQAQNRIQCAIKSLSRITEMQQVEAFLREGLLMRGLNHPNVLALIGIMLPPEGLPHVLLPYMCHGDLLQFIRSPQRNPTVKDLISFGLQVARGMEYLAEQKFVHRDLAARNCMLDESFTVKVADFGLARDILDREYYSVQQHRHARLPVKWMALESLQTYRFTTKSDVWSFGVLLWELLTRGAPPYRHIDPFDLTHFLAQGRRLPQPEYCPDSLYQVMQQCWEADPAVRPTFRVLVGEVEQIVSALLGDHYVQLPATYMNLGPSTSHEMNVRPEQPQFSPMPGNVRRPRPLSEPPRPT

The target in experiment [2] is T1, human RON receptor. In words: cell-based or functional assay.

B1: 5B14-H2L2 (antibody, part only; not given: Humanized light chain L2, IgG1, part only)
heavy: QVQLVQSGAEVKKPGATVKISCKVSGYTFTDYHMDWVQQAPGKGLEWMGDINPNNGGAIYNQKFKGRVTITADTSTDTAYMELSSLRSEDTAVYYCARSHYDYAGGAWFAYWGQGTLVTVSR[human IgG1 constant region not printed]
As a reminder, the EC50 is the concentration that produces a half-maximal response. High values mean a need for much substance, low ones an effect from little substance. On to B1, for which, in experiment [1], the EC50 came to 2.17 µg/mL and the LogEC50 was 0.336 log(µg/ml).

B2: H5B14 conjugated with MMAE (H5B14-MMAE) (other)
heavy: QVQLVQSGAEVKKPGATVKISCKVSGYTFTDYHMDWVQQAPGKGLEWMGDINPNNGGAIYNQKFKGRVTITADTSTDTAYMELSSLRSEDTAVYYCARSHYDYAGGAWFAYWGQGTLVTVSR[human IgG1 constant region not printed]
light: EIVMTQSPGTLSLSPGERATLSCKSSQSLLFSGNQKNYLAWYQQKPGQAPRLLIYWASTRASGIPDRFSGSGSGTDFTLTISRLEPEDFAVYYCQQYYSFPRTFGQGTKLEIKRTVAAPSVFIFPPSDEQLKSGTASVVCLLNNFYPREAKVQWKVDNALQSGNSQESVTEQDSKDSTYSLSSTLTLSKADYEKHKVYACEVTHQGLSSPVTKSFNRGEC
modifications: MMAE conjugated randomly through a protease-sensitive dipeptide linker (Maleimidocaproyl-Val-Cit-PABC), DAR 4:1 (average 3.76); chain and residues not stated
In the case of B2, the “minimal amounts of H5B14-MMAE required to killing 50% of cancer cells (IC50), MTS assay, 72 hours” value in experiment [2] lay within 1 to 3 µg/mL.

Source of the values: patent US20190352422A1 (PCM TARGETECH, published 2019).
